Results reported in PubChem BioAssay AID1508623 (National Center for Advancing Translational Sciences (NCATS), 2021).
In all, about 48,000 compounds went through this assay and about 450 (0.94%) were called active. Inconclusive results (about 19%) are left out. Calls come from the whole dose curve; as a rule, active = well fitted inhibition curve with a large enough effect; inconclusive = small, poorly fitted or top-dose-only effect; inactive = no such curve, though single readings can be large or run the other way. The list shows a part of the results.

Assay: Primary qHTS for Identification of Small Molecule Inhibitors of Huntingtin Promoter Activity; note: nearly all actives have a fitted effect of over 50% in size
Conditions: HEK293 HTT promoter firefly luciferase reporter (activity 0% = vehicle and -100% = no light), 24 h; series mostly up to 57.5 µM; activity change, negative = inhibition: at the top concentration
In short: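 Firefly luciferase signal from promoter-reporter HEK293 cells was scaled between vehicle (0%) and zero RLU (-100%). Compounds were tested at final concentrations of up to 57.5 uM over 24 h at 37 degrees C. PTC124 at 50 uM final served as control inhibitor.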

Activity change, negative = inhibition, inactive:
O=C(NCc1nc2ccccc2[nH]1)c1cccc(Cl)c1 0%, O=C(Cn1c(=O)c2ccccc2n2nncc12)Nc1cccc(F)c1 -6.13%, COc1ccc(NC(=O)NCCn2nnc3cc(S(=O)(=O)N(C)C)ccc32)cc1 -17.8%, Cc1ccccc1Cn1cnc2nc3c(cc2c1=O)CC(C)CC3 (stereo unspecified) -10.2%, CCc1cccc(C)c1NC(=O)CCCn1nc(C)c2sc3ccccc3c2c1=O -0.933%, Cc1ccc(Cl)cc1NC(=O)CCn1c(=O)c2cccn2c2cccnc21 -0.308%, CCOc1ccc2nc(N3CCC(C(=O)Nc4cc(C)ccc4C)CC3)sc2c1 45.7%, Cc1ccc(NC(=O)Cn2cc3c(n2)CCCC3)c(C)c1 -11.4%, O=C(NC1CCCCC1)c1ccc(CSc2nc3ccncc3n2Cc2ccccc2F)cc1 -8.58%, COCCCNC(=O)c1ccc2c(c1)nc1n2CCCCC1 44.2%, CCN(CC)CCCNC(=O)CSc1nc(-c2ccc(OC)cc2)cc(C(F)(F)F)n1 -24%, O=C(CSCc1cnn(-c2ccccc2)c1-n1cccc1)NCc1ccc(F)cc1 -15.3%, Cc1noc(Cn2c(=O)c3cc4c(cc3n(CC(=O)Nc3ccccc3F)c2=O)OCO4)n1 -14.4%, CCOC(=O)C1CCC(CN(Cc2ccc(OC)cc2)S(=O)(=O)c2ccc(F)c(C(=O)Nc3cc(C)ccc3C)c2)CC1 (stereo unspecified) 13.4%, Cc1nc(N2CCCC2)c2c(C(=O)Nc3ccc(Br)cc3F)c(C)oc2n1 -17.3%, CCOc1ccc(NC(=O)c2ccc3snnc3c2)cc1 13.2%, CC(C)NC(=O)C1CCC(Cn2c(=O)c3sccc3n(CC(=O)Nc3ccccc3)c2=O)CC1 (stereo unspecified) -12.2%, COc1ccc(-c2csc3nc(-c4ccccc4)oc(=O)c23)cc1OC -4.42%, Cc1cccc(-c2nc(CSc3nncn4c3cc3sccc34)c(C)o2)c1 0.365%, FC(F)(F)c1cc(-c2cccc(Br)c2)nc2ncnn12 -10.8%, CCOC(=O)[C@H](CCc1ccccc1)N[C@@H](C)C(=O)N1C(=O)N(C)C[C@H]1C(=O)O -6.21%, CN1CCCN(C(c2ccccc2)c2ccc(Cl)cc2)CC1 (stereo unspecified) -3.82%, CCOc1ccc(NC(=O)c2ccc3c(SCC(=O)O)c4c(nc3c2)CCC4)cc1 -12.1%, C[C@@H]1C[C@H]2[C@@H]3CCC4=CC(=O)C=C[C@]4(C)[C@@]3(Cl)[C@@H](O)C[C@]2(C)[C@@]1(OC(=O)c1ccco1)C(=O)CCl -28.5%, CCOC(=O)c1cnc2c(cnn2CC)c1NN=C(C)C 2.83%, COc1ccccc1NC(=O)N1CCN(c2nnc(C)c3c(C)n(-c4ccc(Cl)cc4)nc23)CC1 -4.66%, CCOc1ccccc1NC(=O)COC(=O)c1cn(CC)c2nc(C)ccc2c1=O -26.5%, COc1cc(-c2nc3ccccn3c2Nc2ccccc2C)ccc1O -11.2%, O=C(Nc1cccc(C(F)(F)F)c1)N1CCC(CN2CCCCCC2)CC1 -9.7%, CC1CCc2c(sc(NC(=O)Cn3nnc(-c4ccc(C(F)(F)F)cc4)n3)c2C#N)C1 (stereo unspecified) -8.97%, CC1CCN(c2cc3c(cc2F)c(=O)c(S(=O)(=O)c2cccc(Cl)c2)cn3Cc2ccccc2)CC1 -8.41%, COc1ccc(C2=C(C(C)=O)Sc3nnc(-c4ccc(C)cc4)n3N2C(C)=O)cc1OC -19.1%, COc1ccc(NC(=O)C(=O)NCCc2sc(-c3ccc(Cl)cc3)nc2C)cc1 5.07%, COc1ccccc1CNc1ccc(-c2nc(-c3ccccn3)no2)cc1[N+](=O)[O-] 22.7%, O=C(NCc1ccc(F)cc1)c1c2c(nc3ccccc13)C(=O)N(C1CCCCC1)C2 2.36%, COc1ccc(OC)c(NC(=O)CCNS(=O)(=O)c2cccc3nsnc23)c1 -5.08%, CCOc1ccc2nc(S(N)(=O)=O)sc2c1 25.3%, CCc1ccc(NC(=O)CSc2nc3n[nH]c(C)c3c(=N)n2-c2ccc(C)cc2)cc1 -23%, Cc1cccc(CCNC(=O)C2CCC(CNS(=O)(=O)c3c(C)cc(C)cc3C)CC2)c1 (stereo unspecified) -24.7%, O=C(Cc1ccc(NC(=O)N2CCCCc3ccccc32)cc1)NCc1ccccc1Br -11.3%, COc1cc(Cl)c(C)cc1NC(=O)Cn1cc(S(=O)(=O)N2CCN(c3ccccc3F)CC2)c2ccccc2c1=O -5.47%, N#Cc1ccc(OC(=O)c2cc(-c3ccc(Cl)cc3)on2)cc1 4.03%, O=C(CCC1N=C2c3ccccc3N=C(SCC(=O)Nc3ccccc3F)N2C1=O)NCc1ccco1 (stereo unspecified) 8.35%, Cc1ccc(NC(=O)CN(C)S(=O)(=O)c2ccc3c(c2)n(C)c(=O)c(=O)n3C)c(C)c1 -15.5%, CCc1ccc(CN2C(=O)c3ccccc3C2C(=O)NC2CCCCCC2)cc1 (stereo unspecified) -18.9%, CCOc1ccc(-c2c(C)nn3c(C)c(C(=O)NCc4cccc(OC)c4)cnc23)cc1OCC -33.7%, CCc1ccccc1Nc1nn2c(=O)c3ccc(C(=O)NC4CCC(C)CC4)cc3nc2s1 (stereo unspecified) -21.6%, CC(=O)Nc1ccc(S(=O)(=O)NCc2ccc3c(c2)CCN3C(C)=O)cc1 -5.39%, COc1ccc(-n2ncc(C(=O)N3CCN(Cc4ccccc4)CC3)c2C2CCN(C(=O)OC(C)(C)C)CC2)cc1 -7.09%, CCOc1cc(C(=O)N(Cc2nc(-c3ccc(C)cc3)no2)C(C)C)cc(OCC)c1OCC -23.6%, Cc1nn(C(=O)COc2ccc(Cl)cc2)c(C)c1Sc1ccccc1 0.724%, COc1ccc(C(=O)Nc2cnc3ccccn3c2=O)cc1 54.3%, COc1ccc(CCNC(=O)CCCn2c(=O)c3ccccc3n(CC(=O)Nc3cccc(C)c3)c2=O)cc1OC -10.6%, CCOC(=O)c1c(NC(=O)c2ccc(S(=O)(=O)N3CCC(C)CC3)cc2)sc2c1CCN(C(C)C)C2 -32.2%, CC(=O)N1c2ccc(S(=O)(=O)N3CCCCCC3)cc2CC1C(=O)NCc1ccccc1 (stereo unspecified) -22%, O=C(Nc1ccc2oc(-c3ccccc3)nc2c1)c1ccc2ccccc2c1 -15% [at 11.5 µM], COc1cc2ncnc(Nc3cccc(Cl)c3)c2cc1OC 1.02%, COCCn1c(C)cc(O)c(C(c2ccccc2)N2CCN(CCO)CC2)c1=O (stereo unspecified) -5.35%, NNc1nnc(NN)c2ccccc12 16.1%, COc1cc2c(cc1OC)C(COc1ccc3c(C)cc(=O)oc3c1)N(C(=O)c1cccc(OC)c1OC)CC2 (stereo unspecified) -28.1%, COc1ccc2c(c1)c1c(c(=O)n(Cc3ccccc3)c(=O)n1CC(=O)Nc1cc(C)cc(C)c1)n2C -7.93%, O=C(Nc1ccccc1OCc1cc(=O)n2ccccc2n1)c1cccc(Br)c1 -5.28%, CCOc1ccc(NC(=O)N2CCC(CN3CCCCCC3)CC2)cc1 -20.2%, Cc1ccc2c(n1)sc1c(=O)n(-c3cccc(C(F)(F)F)c3)nnc12 11.4%, Clc1ccc(OCc2nc(-c3ccc(-n4cccc4)cc3)no2)cc1 -14.3% [at 11.5 µM], Cc1ccc(Cl)cc1NC(=O)CCCn1c(=O)c2cccn2c2ccccc21 -6.81%, COc1ccc(-c2nc3scc(CCNS(=O)(=O)c4cc(F)ccc4OC)n3n2)cc1OC 6.48%, Cc1ccc(CN2CCSc3ccc(C(=O)Nc4cc(C)cc(C)c4)cc32)cc1 -19%, CC(=O)N1CCc2c(sc3nc(SCC(N)=O)n(-c4ccc(F)c(Cl)c4)c(=O)c23)C1 10.7%, Cc1ccc(CCNC(=O)CCCn2c(=O)c3ccccc3n(CC(=O)Nc3cc(Cl)ccc3C)c2=O)cc1 0.703%, CN(C(=O)CSc1nnc(-c2ccc([N+](=O)[O-])cc2)o1)C1CCCCC1 3.82%, Clc1ccc(Nc2c(-c3cccs3)nc3ccc(Cl)cn23)cc1 18.1%, COc1ccc(CCNC(=O)Cn2c(=O)cc(C(F)(F)F)c3c(C)nn(C)c32)cc1OC -24.6%, CCc1cccc(NC(=O)c2cc3c(=O)[nH]c4ccccc4c3n2C)c1 1.94%, CCOC(=O)c1sc2nc(C)n(CC(=O)Nc3cccc(Cl)c3)c(=O)c2c1C -5.67%, Cc1ccc(C)c(CSC2=NC(C)(C)Nc3ccccc32)c1 2.24%, CC(=O)c1cccc(NC(=O)CSc2nnc3ccc(-c4ccc(Cl)cc4)nn23)c1 -7.14%, O=C(O)c1ccccc1O 12.8%, COc1ccccc1NC(=O)C1=C(C)Nc2nc(SCc3ccccc3F)nn2C1c1cccnc1 (stereo unspecified) -6.97%, Cc1ccc(Cl)cc1NC(=O)c1sc2nc(-c3ccccc3)cn2c1C -20.4%, CC(C)CN(CC(C)C)c1nc(-c2ccc(Cl)cc2)nc2ccccc12 -3.1%, CO/N=C(/C(=O)N[C@@H]1C(=O)N2C(C(=O)O)=C(Cn3nnc(C)n3)CS[C@H]12)c1csc(N)n1 -0.756%, Cc1c(Cl)cccc1NC(=O)c1ccc2c(c1)nnn2C1CCCC1 -30.5%, O=C(Nc1ccccc1C(=O)OCc1cc(=O)n2c3c(sc2n1)CCCC3)c1ccccc1 -32.2%, O=C(CCS(=O)(=O)c1ccccc1)N(Cc1cccnc1)c1nc2c(Cl)cccc2s1 2.5%, O=C(NCCCN1CCN(c2ccc(F)cc2)CC1)C1COc2ccccc2C1 (stereo unspecified) -30.5%, COc1ccc(Cl)cc1NC(=O)Cn1c(=O)n(Cc2nc(C)no2)c(=O)c2ccccc21 -2.78%, CCCOc1ccc(C2C(=O)N(C3CCCCC3)CC(=O)N2CCc2ccccc2)cc1OC (stereo unspecified) 9.14%, Clc1cccc(-n2ncc3c(NCCc4ccccc4)ncnc32)c1 9%, CCOC(=O)c1cccc(NS(=O)(=O)c2cc(-c3cnc(C)o3)ccc2OC)c1 -42.3%, CN(C)C(=O)c1ccc(NC(=O)Cn2nc(-c3ccccc3)c3ccccc3c2=O)cc1 -19.2% [at 11.5 µM], CCOC(=O)c1c(NC(=O)COc2cc(C)ccc2C(C)C)sc2c1CCCC2 -12%, CCCCNC(=O)C(CC)Sc1nnc(-c2ccc(F)cc2)c(-c2ccc(F)cc2)n1 (stereo unspecified) -18.7%, Cc1cccc(NC(=O)c2c(NC(=O)c3cccs3)sc3c2CCC(C)C3)c1 (stereo unspecified) 11.2%, CC(=O)Nc1ccc(OCc2cc(=O)n3ccccc3n2)cc1 44.9%, COc1ccccc1N1CCN(C(CNC(=O)C(=O)NCCN(C)C)c2cccnc2)CC1 (stereo unspecified) -0.196%
